Assay results published in PubChem BioAssay AID651820 (National Center for Advancing Translational Sciences (NCATS), 2012).
In all, about 340,000 compounds went through this assay and about 12,000 (3.5%) were called active. This list was built around the results that the source calls inconclusive (neither active nor inactive); the mix of calls is not that of the screen. The call rests on the fitted dose curve; in most records, active means well fitted inhibition curve with a large enough effect; inconclusive means small, poorly fitted or top-dose-only effect, or another doubt; inactive means no such curve, though single readings can be large or run the other way. No potency is given beside an inconclusive call; the fits are too rough.

Assay: qHTS Assay for Inhibitors of Hepatitis C Virus (HCV)
Settings: Huh7.5.1 HCVcc-Cre (HCVcc is cell-culture hepatitis C virus) infection, luciferase reporter, 44 h; activity change, negative = inhibition: at 41.8 µM (top of the series) unless noted
Description: Hepatitis C virus (HCV) infects about 200 million people in the world. Many infected people progress to chronic liver disease including cirrhosis with a risk of developing liver cancer. To date, there is no effective vaccine for hepatitis C. Current therapy based on interferon is only effective in about half of the patients and is associated with significant adverse effects. The fraction of people with HCV who can complete a successful treatment is estimated to be no more than 10 percent. Recent development of direct-acting antivirals against HCV, such as protease and polymerase inhibitors, is promising but still requires combination with peginterferon and ribavirin for maximal efficacy. In addition, these agents are associated with high rate of resistance and many have significant side effects. Due to the lack of a culture system for infectious HCV, the search for new HCV drugs has been greatly hampered. […] High-throughput screening (HTS) with an infectious HCV system would cover the complete spectrum of potentially druggable targets in all stages of HCV lifecycle, and would have more biological relevance than other cell-based assays. Moreover, targeting several key processes in the viral life cycle may not only increase antiviral efficacy; more importantly, it may also reduce the capacity of the virus to develop resistance to the compound. The goal of this project is to identify novel HCV inhibitors as new therapies for hepatitis C, using a highly sensitive and specific assay platform which is based on a HCV infectious cell culture system established in the laboratory and adapted for high-throughput HCV drug screen. NIH Chemical Genomics Center [NCGC] NIH Molecular Libraries Probe Centers Network [MLPCN] MLPCN Grant: MH095511 Assay Submitter (PI): Jake Liang, NIDDK
The assay will start with plating 1,000 cells/well in 3 µL volume and culture for 4 h. Then 23 nL of compounds from the library collection will be added to each well, followed by adding 2.5 µL of HCVcc-Cre virus (~ 0.5 moi) and further cultured for 44 h before the luciferase assay. A volume of 4.5 µL luciferase substrates will be added to each well and the plates will be incubated at room temperature for 15 min. and then read for 15 sec. for the luciferase activity
On the % scale 0 is the no-effect control and ±100 the full control effect; tags describe the fitted curve by direction and shape.

| Compound | Potency | activity change, negative = inhibition |
| --- | --- | --- |
| NNc1nc(-c2ccccc2)cc(-c2ccccc2O)n1 | inconclusive [inhibitor, single point] |  |
| Cc1ccc(CNC(=O)Nc2ccccc2)c(C)c1 | inconclusive [inhibitor, single point] |  |
| CCN(CC(=O)Nc1ccc2c(c1)OCCO2)C(=O)CSCC(=O)Nc1ccc(C)cc1 | inconclusive [inhibitor, single point] |  |
| COc1cc(/C=C(/C#N)c2nc3ccccc3[nH]2)ccc1Oc1ncccc1[N+](=O)[O-] | active: 2.51 µM |  |
| O=C(NCc1cccnc1)c1cccc(NS(=O)(=O)c2ccc(Br)cc2)c1 | active: 12.6 µM |  |
| COc1ccc(-c2noc(CCC(=O)NCCN3CCN(c4ccccc4F)CC3)n2)cc1 | active: 6.31 µM |  |
| Cc1cccc2cc(CN(Cc3cccs3)C(=S)NCc3ccco3)c(=O)[nH]c12 | inconclusive [inhibitor, single point] |  |
| Cc1cc([N+](=O)[O-])ccc1NCc1ccccc1[N+](=O)[O-] | inconclusive [inhibitor, single point] |  |
| Cc1cc(NC(=O)c2cc(S(=O)(=O)N3CCCCC3)ccc2C)no1 |  | inactive: 7.05% |
| CSCC[C@@H](C(=O)NCCCCCCCCCCC(=O)N1CCNCC1)n1cc(CCO)nn1 | inconclusive [inhibitor, single point] |  |
| C[C@@]12CCC=C[C@H]1[C@H](c1ccc3ccccc3c1)N(Cc1ccccc1)C2=O | inconclusive [inhibitor, partial curve] |  |
| COc1ccc(-c2noc(CN(C)C(=O)CCN3C(=O)[C@H]4CC=CC[C@H]4C3=O)n2)cc1 | inconclusive [inhibitor, partial curve] |  |
| COc1ccc(Cl)cc1NCCC(O)c1ccc(F)cc1 (stereo not drawn) | active: 7.08 µM |  |
| CC(=O)NCCNc1nc2c(-c3cccc(C)c3)nnn2c2ccccc12 | active: 14.1 µM |  |
| CN(Cc1ccccc1)Cc1ccccc1C(O)c1ccccc1 (stereo not drawn) | inconclusive [inhibitor, partial curve] |  |
| Nc1ccc(O)cc1C(=O)OCC(=O)c1ccc(C2CCCCC2)cc1 | inconclusive [inhibitor, partial curve] |  |
| N#Cc1c(N)nc2c(c1-c1ccccc1)CCC2 | inconclusive [inhibitor, single point] |  |
| CCNC(=O)C(=O)Nc1ccc2c(c1)N(S(=O)(=O)c1cccs1)CCC2 |  | inactive: 4.53% |
| c1ccc2c(c1)CCN(c1ncnc3c1[nH]c1ccccc13)C2 | active: 2.51 µM |  |
| CCCCOc1ccc(C(=O)N/C(=C/C=C/c2ccccc2)C(=O)N2CCOCC2)cc1 | inconclusive [inhibitor, full curve] |  |
| Cc1cc(NC(=S)N(CCN2CCCCC2)Cc2ccco2)ccc1Cl | active: 8.91 µM |  |
| CC12CCC(C(=O)N(NC(=O)c3cccnc3)C1=O)C2(C)C (stereo not drawn) |  | inactive: 22.4% |

| Compound | Potency | activity change, negative = inhibition |
| --- | --- | --- |
| CCOC(=O)c1cnn(-c2ccc(C(C)C)cc2)c1NC(=O)C1CCC1 | inconclusive [inhibitor, single point] |  |
| CCOC(=O)c1c(-n2c(C)cc(C=C3C(=O)NC(=S)NC3=O)c2C)sc2c1CCCC2 | inconclusive [inhibitor, partial curve] |  |
| COc1ccc(NS(=O)(=O)c2cc(NC(=O)c3cccc(OCc4c(C)noc4C)c3)ccc2OC)cc1 | inconclusive [inhibitor, full curve] |  |
| Cc1cccc(NC(=O)c2ccc(S(=O)(=O)N3CCCCCC3)cc2)n1 | inconclusive [inhibitor, single point] |  |
| C[C@H]1C(=O)N(C)CCN1Cc1cn(C)nc1-c1ccc(Oc2ccccc2)cc1 | inconclusive [inhibitor, single point] |  |
| O=C(CCNC(=O)c1ccccc1Cl)Nc1cc(C(F)(F)F)ccc1N1CCCC1 | inconclusive [inhibitor, partial curve, poor fit] |  |
| C/C(=C\C(=O)c1ccccc1)Nc1ccc(O)cc1 | inconclusive [inhibitor, single point] |  |
| Cc1ccc(S(=O)(=O)N2CCN(c3ccc([N+](=O)[O-])c(Sc4nncn4C)c3)CC2)cc1 | inconclusive [inhibitor, full curve] |  |
| CC1(C)CC(N2CCN(c3ccccc3)CC2)=CC(=[N+]2CCCC2)C1 | inconclusive [inhibitor, single point] |  |
| C=C(C)CNC(=S)N/N=C(\C)c1ccc(Cl)s1 | inconclusive [inhibitor, partial curve] |  |
| Cc1cc2[nH]ncc2cc1NC(=S)NC(=O)c1ccccc1 | inconclusive [inhibitor, single point] |  |
| COCCNC(=O)c1ccc(N2CC3CC(C2)c2cccc(=O)n2C3)c(NC(=O)c2c(F)cccc2F)c1 (stereo not drawn) |  | inactive: 6.28% |
| CCOc1ccc(CN(C)CC(=O)Nc2ccc([N+](=O)[O-])cc2Cl)cc1 | inconclusive [inhibitor, single point] |  |
| Cc1ccc(C(=O)c2cnc3ccccc3c2-c2ccccc2)cc1 | inconclusive [inhibitor, single point] |  |
| COc1cc(-c2noc(-c3cccs3)n2)cc(OC)c1OC | inconclusive [inhibitor, full curve, poor fit] |  |
| COc1ccc2cnn(-c3ccc(OC(F)(F)F)cc3)c(=O)c2c1OC |  | inactive: 5.29% |
| CN1C2CCC1/C(=C\c1ccc(F)cc1)C(=O)/C2=C/c1ccc(F)cc1 | inconclusive [inhibitor, single point] |  |
| COc1ccc(CNS(=O)(=O)c2ccc(-n3cccn3)cc2)cc1 | inconclusive [inhibitor, single point] |  |
| CN(CC(=O)Nc1cccc(F)c1)C(=O)CC1CCCCC1 |  | inactive: -3.99% |
| Cc1[nH]n(C2=NCCS2)c(=O)c1N=Nc1cccc(C(F)(F)F)c1 | inconclusive [inhibitor, partial curve] |  |
| CCCOC(=O)Nc1sc2c(c1C(=O)OCC)CCC2 | active: 10 µM |  |
